From PubChem BioAssay AID463173 (ICCB-Longwood Screening Facility, Harvard Medical School, 2010) come the findings set out here.

In all, about 52,000 compounds went through this assay and about 4,300 (8.3%) were called active. Cut-off read from the data, not from the text of the source: active = survival mostly below about 52% (no sharp cut-off); inactive = mostly above about 56%. The list shows a part of the results.

For the test, the system named is DeltatarO mutant. Description: growth inhibition of S. aureus wild type versus tarO mutant, primary screen, teichoic acid synthesis inhibitors, RN4220, OD600 (AID 463173). Particulars: OD600, 18 h, hits give low values, screened at 18.75 µg/mL (by protocol).
As for `COCCNC(=O)Cn1c(=O)n(CCCCCC(=O)NCc2ccc3c(c2)OCO3)c(=O)c2sccc21`, the survival is inactive: 79%. In the case of `O=C(CCS(=O)(=O)c1cccs1)Nc1ccc(C(=O)Nc2ccccc2F)cc1` it was inactive: 135%; in that of `CCSc1ncc(Cl)c(C(=O)Nc2ccc(S(=O)(=O)N3CCCCC3)cc2)n1`, inactive: 87%; in that of `CCOc1ccc(NC(=O)Cn2c(=O)n(-c3cccc(OC)c3)c(=O)c3c4c(sc32)CCCC4)cc1`, inactive: 95%. Then `COc1ccc(Cl)cc1NS(=O)(=O)c1ccc2c(c1)NC(=O)CC(=O)N2`, with inactive: 88%; and `CCCCN(CCCC)CCNC(=O)c1cn(CC)c2ccc(S(=O)(=O)N(C)C3CCCCC3)cc2c1=O`, with inactive: 144%. Then `Cc1ccc(C)c(Cn2cc(S(=O)(=O)c3ccc(Cl)cc3)c(=O)c3cc(F)ccc32)c1`, with inactive: 71%. Take `CCc1ccc(NC(=O)c2ccc3[nH]c(C)c(C)c3c2)cc1`: the survival was inactive: 129%.

`CCN(Cc1ccccc1)C(=O)CN(c1ccc(OC)cc1)S(=O)(=O)c1c(C)nn(C)c1C`: the survival is inactive: 69%. Then `O=C1OC(c2ccccc2)=C/C1=C/c1ccco1`, with inactive: 95%. As to `CCCNC(=O)c1ccc2nc(CCc3ccccc3)oc2c1`, the survival is inactive: 78%. For the molecule `Cc1cc(C)cc(S(=O)(=O)c2cn(C)c3cc(N4CCCC4)c(F)cc3c2=O)c1`, the survival was inactive: 72%.

For `CCc1ccc(NC(=O)CSC2=Nc3ccccc3C3=NC(CCC(=O)NCc4ccco4)C(=O)N23)cc1` (centres undefined), the survival is inactive: 93%. Then `COc1ccc(C(=O)n2nc(-c3ccco3)nc2NCc2cccs2)cc1OC`, with inactive: 91%; and `CCc1ccccc1NC(=O)N(C)CCc1c(C)nn(C)c1C`, with inactive: 107%. Then `Cc1ccc(-c2nc3sc(CCNC(=O)c4ccc(C)c(C)c4)c(C)n3n2)cc1`, with inactive: 72%; and `COc1ccc(-c2nc(CSc3nncn4c3cc3sccc34)c(C)o2)cc1OC`, with inactive: 81%; and `O=C(CN1C(=O)CCc2cc(S(=O)(=O)N3CCOCC3)ccc21)NCc1ccccc1`, with inactive: 73%.

With `CCNc1nc(OC)nc(Oc2ccc(=O)[nH]n2)n1`, the survival was inactive: 63%. Then `CC(C)(C)c1ccc(S(=O)(=O)N2CCN(Cc3noc(CCC(=O)N4CCCCC4)n3)CC2)cc1`, with inactive: 67%; and `CCc1cnc2c(c1SCC(=O)N1CCCCC1)c(=O)n(C)c(=O)n2C`, with inactive: 89%. Then `CCCCOc1ccc(C(=O)NCCS(=O)(=O)N2CCN(c3ccc(F)cc3)CC2)cc1`, with inactive: 91%.

For the molecule `CCOc1ccc(CNCc2c(C(=O)O)n(Cc3ccccc3F)c3cc(OC)ccc23)cc1`, the survival is inactive: 92%. In the case of `CCC(=O)N1CCc2cc(Br)cc(S(=O)(=O)N3CCC(C(=O)Nc4ccc(OC)cc4)CC3)c21` it was active: 8%; in that of `COc1ccc(-c2cc(C(=O)O)n(Cc3ccccc3)n2)cc1`, inactive: 76%. In the case of `O=C(CSc1nc2ccccc2nc1Cc1ccccc1)NCc1ccccc1Cl` it was inactive: 113%; in that of `Cc1cc(C)c(NC(=O)Cn2c(=O)n(CC(=O)NCc3ccccc3Cl)c(=O)c3sccc32)c(C)c1`, inactive: 171%. Then `CC(=O)c1cc2c(cc1N/C(=N/S(=O)(=O)c1ccc(C)cc1)c1ccccc1)OCO2`, with inactive: 74%. Turning to `COC(=O)C(NC(=O)CC(C)C)(Nc1nc2c(s1)CCCC2)C(F)(F)F` (centres undefined), the survival was inactive: 120%. Then `Cc1cccc2nc(-c3ccco3)c(Nc3ccc4c(c3)OCO4)n12`, with inactive: 79%; and `CCOC(=O)C1CCCN(S(=O)(=O)c2ccc(F)c(C(=O)Nc3ccc(F)c(F)c3)c2)C1` (centres undefined), with inactive: 77%.

For the molecule `Cc1nc2scc(-c3cccs3)c2c(=O)o1`, the survival was inactive: 87%. Then `CCCCN(CC)CCCNC(=O)c1sc2nc(C)cc(C)c2c1-n1cccc1`, with inactive: 113%; and `CCc1ccc(NC(=O)c2ccc3c(O)c(S(=O)(=O)c4ccc(Cl)cc4)c(=O)[nH]c3c2)cc1`, with inactive: 75%.

Regarding `Cc1ccc(S(=O)(=O)N(CC(O)Cn2c3ccccc3c3ccccc32)c2cccc(C(N)=O)c2)cc1` (centres undefined), the survival is active: 38%. In the case of `Cc1ccc(C)c(NC(=O)CN2C(=O)CCc3ccccc32)c1` it was inactive: 81%; in that of `CCN(CC)Cc1nc2ccccc2[nH]1`, inactive: 78%; in that of `CCOc1ccc(CCNC(=O)Cn2nc(C)n3c(cc4occc43)c2=O)cc1OCC`, inactive: 85%. In the case of `Cc1ccccc1C(=O)c1cccn1CC(=O)NCc1ccccc1` it was inactive: 103%; in that of `CCn1c2ccccc2c2nnc(SCC(=O)O)nc21`, inactive: 54%. In the case of `Cc1ccccc1CNC(=O)c1cnc2sc(N3CCOCC3)nn2c1=O` it was inactive: 68%; in that of `Cc1ccc(NC(=O)CN(C)S(=O)(=O)c2ccc3c(c2)n(C)c(=O)c(=O)n3C)cc1C`, inactive: 87%; in that of `Cc1ccc(-c2nc3c4ccccc4n(CC(=O)N4CCN(c5ccccc5F)CC4)c(=O)n3n2)cc1`, inactive: 78%. With `Cc1ccc(-n2nnnc2CNC(=O)C(C)(C)C)cc1C`, the survival is active: 46%. In the case of `O=C(CS(=O)CC(=O)Nc1ccc2c(c1)OCCO2)Nc1ccc(Cl)cc1` (centres undefined) it was inactive: 95%. In the case of `Cc1nc(SC(C)C(=O)Nc2ccccc2C)cc(-c2ccccc2)n1` (centres undefined) it was inactive: 60%. Turning to `COc1ccc(CNC(=O)c2cc(-c3ccc(OC)cc3)on2)cc1`, the survival was inactive: 210%. With `CC(=O)Nc1ccc(S(=O)(=O)N2CCC(n3c(C(F)(F)F)nc4cccnc43)CC2)cc1`, the survival is inactive: 86%.

Regarding `Cc1ccc(CCNC(=O)CCCn2nc(C)c3c(C)n(-c4ccccc4)nc3c2=O)cc1`, the survival is inactive: 87%. In the case of `COc1cccc(-c2cc(C(=O)Nc3cc(Cl)ccc3O)on2)c1` it was inactive: 97%; in that of `CC(C)Oc1ccc(CNC(=O)c2cc3ccccn3n2)cc1`, inactive: 90%; in that of `O=C(CCn1c(=O)oc2ccccc21)n1c(=O)oc2ccccc21`, inactive: 108%. For the molecule `O=c1c2cc3c(cc2n(Cc2ccc(Cl)cc2)c(=O)n1Cc1nc(-c2ccccc2)no1)OCO3`, the survival was inactive: 86%. Then `Cc1ccc(-n2c(Cc3ccccc3)nnc2SCc2nc(-c3cccs3)no2)cc1`, with inactive: 65%; and `Cc1ccc2c(c1)c1c(c(=O)n(-c3cccc(Cl)c3)c(=O)n1CC(=O)Nc1c(C)cccc1C)n2C`, with inactive: 78%. Consider `CCOC(=O)c1ccccc1NC(=O)CSc1nc2cn(CC)nc2c(=O)n1Cc1ccc(Cl)cc1`, for which the survival was inactive: 57%. On to `CCN(CC)C(=O)n1c(Cc2ccccc2)nc2ccccc21`, for which the survival is inactive: 86%. In the case of `Cc1ccc(CN2CCSc3ccc(C(=O)N4CCN(c5ccccc5)CC4)cc32)cc1` it was inactive: 63%; in that of `O=C(CC1N=C2c3ccccc3N=C(SCc3ccc(Cl)cc3)N2C1=O)NCc1cccs1` (centres undefined), inactive: 75%. In the case of `COc1ccc(N2CCN(C(=O)C3CCN(S(=O)(=O)c4cccs4)CC3)CC2)cc1` it was inactive: 118%; in that of `CC(=O)c1ccc(S(=O)(=O)N2CCn3cccc3C2c2ccc(C)cc2)cc1` (centres undefined), inactive: 73%; in that of `CCOC(=O)Cn1c(=O)n(CC2CCCO2)c2nc(-c3ccc(C)cc3)nc(C(N)=O)c21` (centres undefined), inactive: 67%. Then `CC(C)c1ccc(C2=CC(c3ccc(C(C)C)cc3)n3nnnc3N2)cc1` (centres undefined), with inactive: 67%; and `Cc1ccc2nc3c(cc(C(=O)NCC4CCCO4)c(=N)n3C(C)C)c(=O)n2c1` (centres undefined), with inactive: 67%; and `COc1ccccc1/C=C/c1nc2ccccc2n1C(C)C`, with active: 8%. On to `COc1ccccc1NC(=O)C(=O)NCC(c1ccc2c(c1)OCO2)N1CCOCC1` (centres undefined), for which the survival was inactive: 75%. `COc1ccc(Cl)cc1NC(=O)Cc1ccc(NC(=O)N2CCCCc3ccccc32)cc1`: the survival was inactive: 71%. Then `O=C(Nc1cccc(Cl)c1)c1cnc2sc(N3CCCC3)nn2c1=O`, with inactive: 85%. In the case of `CN1C(=O)Cc2cc(S(=O)(=O)N3CCN(c4ccccc4F)CC3)ccc21` it was inactive: 107%; in that of `COc1ccc(CNC(=O)Cc2c(C)c3cc4c(C)coc4c(C)c3oc2=O)cc1`, inactive: 72%. In the case of `Cc1ccc(C)c(CN2CCCN(Cc3ccc(F)cc3)S2(=O)=O)c1` it was active: -5%. `Cc1nc(-n2nc(C)c(Cc3ccccc3Cl)c2C)sc1C(=O)Nc1ccccc1F`: the survival is inactive: 78%.

As to `Cc1nc(C)c(-c2ccc(SCC(=O)Nc3ccc(Br)cc3)nn2)s1`, the survival is inactive: 101%.

Consider `CC(C)(C)C(=O)Nc1ccc2oc(=O)ccc2c1`, for which the survival is inactive: 80%. Consider `CC(=O)c1cccc(-n2c(=O)c3c4c(sc3n(CC(=O)c3ccccc3)c2=O)CN(C(C)=O)CC4)c1`, for which the survival was inactive: 84%. Then `Cc1ccc(C)c(CN2C(=O)c3ccccc3S(=O)(=O)c3ccc(C(=O)N(C)C4CCCCC4)cc32)c1`, with inactive: 64%. Regarding `CC1(C)Cc2ccccc2C(=NCC(=O)O)N1`, the survival is inactive: 96%. Then `CC(=O)c1cc2c(cc1N/C(=N/S(=O)(=O)c1ccc(Cl)cc1)c1ccc(F)cc1)OCO2`, with inactive: 99%.

In the case of `Cc1ccc(OC(=O)c2cccc(S(=O)(=O)N3CCOCC3)c2)c(-n2nc3ccccc3n2)c1`, the survival is inactive: 101%. In the case of `CCc1nnc(NC(=O)CSc2nccn2-c2ccc(OC)cc2)s1` it was inactive: 116%; in that of `CSc1ccc(CCNC(=O)c2cnc3c(C)cccn3c2=O)cc1`, inactive: 89%. In the case of `COC(=O)CSc1nnc(C2CCCCC2)n1Cc1ccccc1` it was inactive: 116%; in that of `Cc1ccccc1-c1nc(CN2CCC(C(=O)NCc3ccccc3Cl)CC2)c(C)o1`, inactive: 84%. Then `O=S1(=O)C=C(N2CCCC2)c2ccccc21`, with inactive: 92%. Take `CCOc1ccc(N2CC(NC(=O)CCc3ccccc3)CC2=O)cc1` (centres undefined): the survival is inactive: 93%. Consider `CC(C)(C)c1ccc(NC(=O)C2CCCN(c3cnccn3)C2)cc1` (centres undefined), for which the survival was inactive: 103%. Then `CCc1ccccc1NC(=O)Nc1c[nH]c(=O)[nH]c1=O`, with inactive: 75%; and `Cc1ccc(C)c(N2CCN(C(=O)c3ccc(NC(=O)c4nsc5ccccc45)cc3)CC2)c1`, with inactive: 67%; and `Cc1nn(-c2ccccc2)c(OC(=O)C(C)C)c1Sc1ccc(Cl)cc1`, with active: 36%.
